We go through 167 variants from the RNAGym collection of RNA variant scans (doi:10.1093/nar/gkz1192).

The source gives no read counts; variants with many changes may rest on few reads.

To fix the notation:
B1: CPEB3 Ribozyme (parent)
chain: UAACAGGGGGCCACAGCAGAAGCGUUCACGUCGCAGCCCCUGUCAGAUUCUGGUGAAUCUGCGAAUUCUGCUGUAUAUCUC

The variants in the data set derive from B1. Description: self-cleavage, relative activity (ratio to wild type); higher = more cleavage; in vitro, sequencing. In outline: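 CPEB3 self-cleaving ribozyme mutant libraries were made by rounds of error-prone PCR, barcoded, and transcribed in vitro with T7 RNA polymerase for 5 hours at 37°C. Cleavage occurred during transcription and a 15 min DNase I step before EDTA stop. RNAs were reverse transcribed with template switching and Illumina-sequenced, with DNA sequencing mapping barcodes to variants. Relative activity is the variant's cleaved/total read fraction divided by wild type's (minimum 5 reads), averaged across three batches.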
With C11A C23A U31A A45U U66G U69C C79A, the self-cleavage amounted to 0.02.
As for C11G A18U A20G U31G G63C A77G, the figure is 0.04.
In the case of C11G G22A C32A A47C U51A U60C A64G, the self-cleavage worked out at 0.04.
As for G10U A15G A45U, the self-cleavage came to 0.08.
As to G10U U25C U58C, the self-cleavage amounted to 0.14.
C11A C39G U72C: the self-cleavage worked out at 0.05.
With C11G C29U U60A, the self-cleavage was 0.26.
In the case of C11G C29U U49A it was 0.03.
In the case of C11A G16C C32U A35G U43C G46C U54C it was 0.03.
C11A A13U U69A: the self-cleavage was 0.07.
As to G10U U54G G70A, the self-cleavage came out at 0.11.
On to C11G A35C G36C U41C, for which the self-cleavage turned out to be 0.46.
As to C11A A28U U31C U69A, the self-cleavage came to 0.06.
C11G U25C G36U U41C: the self-cleavage was 0.04.
For C11A A21G A45G U76A, the self-cleavage is 0.07.
Take C11G C14U C17G A18G U25C U78C: the self-cleavage was 0.06.
As for G10C U74C U80C, the figure is 0.27; as for G10U A64U U74C A75C, 0.07.
As for C11G A13G C27G C62G U74C, the self-cleavage worked out at 0.04.
Consider G10U U25A U80C, for which the self-cleavage was found to be 0.18.
Turning to C11G U43A U60A U72A U80A, the self-cleavage is 0.08.
As for C11G G24C U49C, the figure is 0.13; as for C11G A15U U60A A64G U76C, 0.07.
With C11G G63A A64G U67C, the self-cleavage stood at 0.04.
Consider C11G C23U U26C U51G U60C, for which the self-cleavage is 0.05.
In the case of C11G A57G U67A U74A A75G, the self-cleavage is 0.1.
Regarding G10U U41A C62U U67C A77G, the self-cleavage was 0.1.
As to C11A A21G U66C U72C, the self-cleavage is 0.5.
As for G10C U25C U26A A64U, the figure is 0.07; as for C11A A15G C38G U43C C44A U72C, 0.06.
In the case of G10C C37U U67C U74C A77U it was 0.09; in that of G10U A20G U41A, 0.32.
For C11A C23U U72C U78C, the self-cleavage was 0.03.
On to C11A U54C A65C U67C, for which the self-cleavage was 0.08.
As for G10U A20G A21G U31C U43G A56G, the self-cleavage came out at 0.05.
Take C11G U48C A56U C62U U67C U78C: the self-cleavage was 0.09.
For the variant C11A A56G U80C, the self-cleavage was 0.38.
For C11A U25C U60C A64G U67C, the self-cleavage was determined as 0.06.
Take C11G A13G U25C C32U U60C U67C: the self-cleavage worked out at 0.04.
In the case of G10U C37A G70A, the self-cleavage was 0.13.
As for G10U A28G U41C U54G G55A, the figure is 0.37; as for C11G A15G C44U, 0.23.
In the case of C11G A15U A45G A64G U76C, the self-cleavage was found to be 0.08.
In the case of G10C G16A A64C U67C it was 0.05.
As for C11G A21G U25C U41A A56G, the figure is 0.04.
C11A U43A A45G U78G U80C: the self-cleavage was found to be 0.19.
For C11G A45G A47G U60G U80C, the self-cleavage amounted to 0.09.
Consider G10U C12U U49C U76C, for which the self-cleavage was 0.05.
Consider G10U A18G G19C U41A U78C, for which the self-cleavage amounted to 0.22.
As for C11G U41C U51A U54C U78C U80A, the figure is 1.03; as for C11G U51C A56G U74A, 0.35; as for C11G A28G A56C, 0.16.
As for C11A A21U A47G, the figure is 0.3.
In the case of C11G C59U U78C, the self-cleavage was 0.38.
In the case of C11A U25A A35G A57G A65G U72C it was 0.05.
Take C11A A15U G24A A47G U48C A56G A75U: the self-cleavage turned out to be 0.03.
In the case of C11A A15C A77C U80C it was 0.24; in that of G10U U43C U51G U60C G73C, 0.06; in that of G10C U49A U54C A65G U67C, 0.18.
With C11A U25C A56U U80A, the self-cleavage turned out to be 0.05.
In the case of C11G A18G A20U U72G U78C C79U it was 0.17; in that of C11G A20G U41C A56G U60A, 0.18.
As for C11A U26A A45G U48A, the self-cleavage came to 0.03.
Regarding C11A A20C U31A A65U U66C, the self-cleavage was found to be 0.1.
In the case of C11G C32G U60C U72A U78C it was 0.03; in that of C11A A21G U41A A57G, 0.18; in that of C11G C17A A18C A56G U60G, 0.05.
C11A U26C U41C A47U: the self-cleavage is 0.06.
In the case of C11G A13U U41A U49C A57G U80C it was 0.08.
On to C11G A15U U26A U51C, for which the self-cleavage was 0.1.
Turning to C11A A13G A35G C37A U72C, the self-cleavage turned out to be 0.05.
Take C11G A15U U51A: the self-cleavage amounted to 0.36.
Take G10C C17U U41C U80C: the self-cleavage was determined as 0.1.
Consider C11G A13U U48A U72A, for which the self-cleavage stood at 0.09.
Consider C11A C12U C23A U54A A77U, for which the self-cleavage came to 0.33.
As for C11G G19U C34U A35G C39A, the figure is 0.26.
Take C11G A15U A45G U72C: the self-cleavage was 0.23.
For the variant G10U A28U U41A U48C U54C A56G U72G, the self-cleavage was 0.03.
As for C11G A15U C39A U69A U72A, the self-cleavage is 0.13.
As to C11A G30A A57C U67A, the self-cleavage came to 0.04.
In the case of C11G C32G U43A U66C, the self-cleavage came to 0.07.
Consider G10U U31G A64G G70C, for which the self-cleavage was found to be 0.13.
As for C11G G16C A35U A64G, the self-cleavage came to 0.05.
Take G10U A57G C62U C79A: the self-cleavage came out at 0.06.
As for C11G A15G A35U, the figure is 0.07; as for C11A A18G U26A U51C C62U, 0.04.
For C11G A18G U25G C38A U72C U78C, the self-cleavage was 0.05.
On to G10U U49A A64G, for which the self-cleavage is 0.58.
As for C11G A18G C29U A45C A56G U60A, the self-cleavage was determined as 0.17.
Regarding C11G U25C A28G U48C, the self-cleavage amounted to 0.05.
Turning to C11G C27U A28G U51A, the self-cleavage came out at 0.06.
For the variant C11G A21G A45U, the self-cleavage came to 0.06.
For G10U U26G U41A C62U U67C, the self-cleavage is 0.06.
Consider C11A A15U A28U U51C U58C, for which the self-cleavage came out at 0.07.
As to C11A G46U U48A U51A C62U, the self-cleavage turned out to be 0.15.
In the case of C11G A47G U49C it was 0.07; in that of C11G A28G U31C A57G U78A U80A, 0.06.
In the case of C11A A28G C79U, the self-cleavage came out at 0.35.
For the variant C11G A15C A45U U67C, the self-cleavage is 0.15.
For the variant G10U G30A U43G, the self-cleavage turned out to be 0.07.
Regarding C11G A15G U80C, the self-cleavage amounted to 0.2.
Regarding C11G A20U G33A G63C A65G, the self-cleavage was 0.04.
As to C11G A18G A20G A35G A47G U78C, the self-cleavage came to 0.09.
Consider C11G C17U C32G C50G U60A U72C U80A, for which the self-cleavage came out at 0.03.
On to G10U A21G U41C G55U, for which the self-cleavage was found to be 0.51.
For G10C U26C U67C, the self-cleavage worked out at 0.12.
As to C11G A35G U41C U49C U54C U60A, the self-cleavage turned out to be 0.05.
As for G10C U54C U76C U80C, the self-cleavage worked out at 0.19.
Regarding C11G U26C A47G U51C, the self-cleavage was 0.12.
As to C11A A13G A57G A64U, the self-cleavage is 0.28.
Regarding C11G U26C U51C U78C, the self-cleavage came out at 0.15.
Consider C11A A20U A28G A35U U72C U78C, for which the self-cleavage is 0.03.
As to C11G U26A A35G, the self-cleavage was 0.47.
On to C11G U26C G30U A64G U66A, for which the self-cleavage amounted to 0.04.
C11G A18G A64G U80C: the self-cleavage was 0.08.
With C11G A18C U78C, the self-cleavage stood at 0.09.
As for C11A A13G A47G U67G, the figure is 0.14; as for C11A U41G U49C, 0.07.
As for C11A A45G U58C, the figure is 0.06; as for G10C U58C U72C, 0.16; as for C11A C14A A64U U69C, 0.09.
As for G10C U66C U72A, the self-cleavage came out at 0.15.
In the case of C11G U26A U60C A77G U80A it was 0.08.
For the variant C11A A15G A20G G53C U72C A75G, the self-cleavage was found to be 0.07.
Take C11G A15G A20U A45U: the self-cleavage is 0.05.
On to G10U C23A A35G U41C U67C, for which the self-cleavage came to 0.1.
For C11G U43A A45U U80C, the self-cleavage came out at 0.06.
G10C U67C U74C: the self-cleavage is 0.12.
As to C11A A15U C32U A35G U43C, the self-cleavage is 0.05.
As for G10U A21U U31C A64G, the figure is 0.04; as for C11G A21U U25C U26A U31C, 0.06; as for G10U A28C C50A, 0.32.
Regarding C11G U26C U54C A56U C71U, the self-cleavage was 0.05.
In the case of C11G C23G U41C U72C, the self-cleavage is 0.06.
For C11G A20U A45U A64U, the self-cleavage was 0.04.
In the case of C11G U25C G36U U41C A57G A65G it was 0.06; in that of C11A A13U A47G U78C, 0.2; in that of G10U A35G A45G A57G U60A, 0.06.
With C11G A13U A15G A65G C68A U69A, the self-cleavage amounted to 0.06.
Take C11A A13G U54A A77C: the self-cleavage came to 0.31.
As for C11G A28G U51A, the figure is 0.12; as for C11A A15G U54C U76A, 0.42; as for C11G C17U U43A, 0.48.
As for C11G A20G U43A U51C C59A, the figure is 0.05; as for G10C C17U U54C, 0.27; as for C11A C17U A18U U25C U41A U60C U78C, 0.06.
For the variant C11A G63A U72C, the self-cleavage is 0.47.
In the case of C11A A56U U72C, the self-cleavage turned out to be 0.29.
As for C11G U26A A57G U66C U72C, the figure is 0.18; as for C11G A13G A28G C40U U51C C59G A77G, 0.05.
Regarding C11A U67C U69C, the self-cleavage stood at 0.08.
For the variant C11G A18U A20G U54A U58A, the self-cleavage worked out at 0.08.
On to C11G U26C U43C A56U, for which the self-cleavage amounted to 0.32.
As for C11G A21G U66C, the figure is 0.25; as for G10U U48C U60A U67C, 0.12.
For C11A U26C C62U U76A, the self-cleavage is 0.05.
With G10U U60C U72A, the self-cleavage was determined as 0.12.
For the variant C11G C23U U51A U60A, the self-cleavage came out at 0.06.
C11G A57G U67C U72C U76A: the self-cleavage is 0.12.
As to C11G A18G U25C A57U U66C A77G, the self-cleavage came out at 0.02.
As to C11G A13G A75G, the self-cleavage stood at 0.41.
Regarding G10C U49A A56G, the self-cleavage amounted to 0.27.
Take C11A U60G C68U: the self-cleavage is 0.08.
As for C11G C62U A75C U78G, the self-cleavage was found to be 0.04.
Take G10U G16U A28G U80C: the self-cleavage was 0.07.
On to C11G U31A U43C, for which the self-cleavage came out at 0.07.
As for C11G U41C U54C U74A, the self-cleavage was found to be 0.98.
